{"source": "paper PMC4336329", "about": "(PLoS ONE, 2015)", "note": "About 14,000 (4.5%) of roughly 310,000 compounds showed an effect of 50% or more. Effects have a minus sign here. Some of the results follow.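 Note: peak tail current of the secondary pulse compared with the same well before compound.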"}
{"target": "human ether-à-go-go-related gene (hERG) potassium channel (human, UniProt Q12809)", "sequence (Q12809 whole entry, looked up)": "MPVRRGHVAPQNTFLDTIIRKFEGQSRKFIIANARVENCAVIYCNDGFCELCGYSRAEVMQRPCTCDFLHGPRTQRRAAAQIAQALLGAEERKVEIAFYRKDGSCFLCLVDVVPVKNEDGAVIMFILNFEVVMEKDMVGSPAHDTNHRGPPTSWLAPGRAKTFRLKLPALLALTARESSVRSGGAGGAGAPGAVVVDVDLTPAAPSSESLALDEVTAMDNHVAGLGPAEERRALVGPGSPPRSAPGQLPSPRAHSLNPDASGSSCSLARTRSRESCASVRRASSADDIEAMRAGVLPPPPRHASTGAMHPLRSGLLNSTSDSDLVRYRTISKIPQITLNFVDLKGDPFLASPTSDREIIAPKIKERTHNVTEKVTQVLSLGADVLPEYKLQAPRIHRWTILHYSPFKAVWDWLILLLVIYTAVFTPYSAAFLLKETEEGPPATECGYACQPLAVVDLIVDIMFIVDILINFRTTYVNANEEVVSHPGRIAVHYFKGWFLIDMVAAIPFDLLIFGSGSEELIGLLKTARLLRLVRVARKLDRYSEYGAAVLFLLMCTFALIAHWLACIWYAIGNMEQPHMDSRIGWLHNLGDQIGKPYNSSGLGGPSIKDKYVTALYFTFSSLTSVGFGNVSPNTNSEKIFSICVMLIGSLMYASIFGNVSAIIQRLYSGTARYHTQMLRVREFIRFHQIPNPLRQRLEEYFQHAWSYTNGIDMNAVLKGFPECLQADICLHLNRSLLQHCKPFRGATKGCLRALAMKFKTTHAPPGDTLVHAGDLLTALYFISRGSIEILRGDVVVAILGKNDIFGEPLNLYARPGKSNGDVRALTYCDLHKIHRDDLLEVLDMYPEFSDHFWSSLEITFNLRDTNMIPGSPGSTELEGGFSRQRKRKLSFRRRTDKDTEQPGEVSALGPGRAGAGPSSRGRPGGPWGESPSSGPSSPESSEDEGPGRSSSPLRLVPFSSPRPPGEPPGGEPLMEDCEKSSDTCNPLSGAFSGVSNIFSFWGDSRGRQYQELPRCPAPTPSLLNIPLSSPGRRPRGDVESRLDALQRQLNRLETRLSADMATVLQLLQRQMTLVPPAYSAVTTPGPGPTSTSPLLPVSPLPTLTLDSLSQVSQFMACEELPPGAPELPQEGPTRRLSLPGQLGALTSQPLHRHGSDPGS", "assay": "primary screen, population patch clamp on CHO cells stably expressing hERG", "units": {"hERG current change (%, negative = inhibition) at 10uM": "%"}}
{"smiles": "CCCc1c(C(=O)Nc2ccc(F)cc2C)cnn1-c1ccccc1", "hERG current change (%, negative = inhibition) at 10uM": -8.15}
{"smiles": "O=C(Nc1cccn(Cc2ccccc2Cl)c1=O)NC1CCCCC1", "hERG current change (%, negative = inhibition) at 10uM": -20.9}
{"smiles": "CCOC(=O)c1c(S(=O)(=O)N2CCCC2)c(C)n(C)c1C", "hERG current change (%, negative = inhibition) at 10uM": 16.7}
{"smiles": "CN(C)CCNC(=O)c1scc2c1CCCC2.Cl", "hERG current change (%, negative = inhibition) at 10uM": 6.77}
{"smiles": "COc1ccc(C)cc1S(=O)(=O)N1CCC(C)CC1", "hERG current change (%, negative = inhibition) at 10uM": -22.3}
{"smiles": "Cc1cc2c(N=O)c(NO)ccc2[nH]1", "hERG current change (%, negative = inhibition) at 10uM": 1.52}
{"smiles": "C#CCOCCOCCOCCNc1nc(N2CCN(C(=O)[C@H](CCCCN)n3cc([C@@H](N)CC(C)C)nn3)CC2)nc(N2CCN(C(=O)[C@H](Cc3cc4ccccc4[nH]3)n3cc([C@@H](N)Cc4ccc(O)cc4)nn3)CC2)n1.Cl", "hERG current change (%, negative = inhibition) at 10uM": 10.6}
{"smiles": "CCN(CC)c1cccc(OC2=NS(=O)(=O)c3ccccc32)c1", "hERG current change (%, negative = inhibition) at 10uM": 6.79}
{"smiles": "O=C(CCl)N=c1sccn1Cc1ccccc1Cl", "hERG current change (%, negative = inhibition) at 10uM": -5.61}
{"smiles": "COC(=O)c1ccc(NC(=O)c2cccc(NC(=O)c3ccccc3)c2)cc1", "hERG current change (%, negative = inhibition) at 10uM": 20.5}
{"smiles": "Cc1ccc(C2CC2C(=O)NNC(=S)Nc2cccc(Cl)c2)cc1", "note": "(centres unmarked)", "hERG current change (%, negative = inhibition) at 10uM": -4.44}
{"smiles": "COc1cc(/C=C/C(=O)O)cc(S(=O)(=O)N(CC(C)C)CC(C)C)c1OC", "hERG current change (%, negative = inhibition) at 10uM": 24.3}
{"smiles": "COc1ccc(Cc2nnc(SCC(=O)c3ccc4c(c3)NC(=O)CO4)o2)cc1", "hERG current change (%, negative = inhibition) at 10uM": -2.42}
{"smiles": "CC(C)c1ccc2nc3sc(C(=O)N4CCc5ccccc5C4)c(N)c3cc2c1", "hERG current change (%, negative = inhibition) at 10uM": -0.273}
{"smiles": "COc1cc2[nH]c(=S)nc(NCc3cccnc3)c2cc1OC", "hERG current change (%, negative = inhibition) at 10uM": 11.5}
{"smiles": "CC(NC(=S)Nc1ccc([N+](=O)[O-])cc1)c1ccncc1", "note": "(centres unmarked)", "hERG current change (%, negative = inhibition) at 10uM": -19.1}
{"smiles": "Cc1ccsc1C(=O)N1CCC(N2CCC(C(=O)NCC3CCCO3)CC2)CC1", "note": "(centres unmarked)", "hERG current change (%, negative = inhibition) at 10uM": 26.8}
{"smiles": "Cc1ccc(C(=O)NNC(=O)CSc2nnc(-c3ccncc3)n2-c2ccc(C)cc2)cc1", "hERG current change (%, negative = inhibition) at 10uM": -51.4}
{"smiles": "CCCOc1ccc(OCCOCCNCc2ccccc2)cc1.O=C(O)C(=O)O", "hERG current change (%, negative = inhibition) at 10uM": -45.2}
{"smiles": "C[C@]12CCC3C(CCC4=CC(O)CC[C@@]43/C=N/O)C1(O)CCC2C1=CC(=O)OC1", "note": "(some centres unmarked)", "hERG current change (%, negative = inhibition) at 10uM": 4.94}
{"smiles": "COc1ccc(-c2nc(CS(=O)CC(=O)NCc3ccccn3)c(C)o2)cc1", "note": "(centres unmarked)", "hERG current change (%, negative = inhibition) at 10uM": 6.44}
{"smiles": "CC1(C)Cc2ccccc2-c2nc(NCCO)n(-c3ccccc3)c(=O)c21", "hERG current change (%, negative = inhibition) at 10uM": -30.1}
{"smiles": "CC(=O)Nc1c(O)[nH]c2ccccc12", "hERG current change (%, negative = inhibition) at 10uM": 5.66}
